From PubChem BioAssay AID493208 (National Center for Advancing Translational Sciences (NCATS), 2011)
The whole screen tested about 44,000 compounds, of which about 340 (0.77%) were called active. Not shown: some 5% with an inconclusive outcome. The call rests on the fitted dose curve; in most records, active means well fitted inhibition curve with a large enough effect; inconclusive means small, poorly fitted or top-dose-only effect; inactive means flat fitted curve, though single readings scatter. This is one part of the list.

experiment: Acumen qHTS Assay for Inhibitors of the mTORC1 Signaling Pathway in MEF (Tsc2-/-, p53-/-) Cells: Sytravon; conditions: phospho-rpS6 immunofluorescence/PI, 24 h; series mostly up to 38.3 µM; activity change, negative = inhibition: at the top concentration;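 further: plate controls were DMSO for no effect and rapamycin for full effect; nearly all actives have a fitted effect of over 50% in size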
Summary of the method: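 Readout is phospho-S6 Alexa 488 signal normalized to PI per well, reported as % active cells with thresholds set from rapamycin (7.5 nM) and DMSO controls. Cells: Tsc2-/-, p53-/- MEFs, 24 hrs compound at 37 C; PI cell number serves as viability.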

Activity change, negative = inhibition, inactive:
Cc1ccc(Cl)cc1NC(=O)CN1C=NS(=O)(=O)c2ccccc21 -2.13%, Cc1cccc(Cn2c(=O)n(-c3cc(C)cc(C)c3)c(=O)c3oc4ccccc4c32)c1 -3.27%, CCc1nn(CCCC(=O)NCc2ccccc2OC)c(=O)c2cc3occc3n12 0.25%, Cc1cc(C)c2c(n1)nn1c(C)c(CCC(=O)Nc3cccc(C)c3C)c(C)nc21 0.714%, Cc1ccc(Cl)cc1N1CCN(C(=O)C2CCN(S(=O)(=O)c3cn(C)cn3)CC2)CC1 2.28%, Cc1cccc(N2CCN(CCCNC(=O)Cn3ncc4c([nH]c5ccccc54)c3=O)CC2C)c1 (stereo not given) -8.58%, COc1ccc(N(C)C(=O)Cn2cnc3sc(C)c(S(=O)(=O)N4CCN(c5ncccn5)CC4)c3c2=O)cc1 7.49%, Cc1ccc(-c2nc3cccc(C)n3c2Nc2ccc3c(c2)OCCO3)cc1 -8.45%, O=C(NCCS(=O)(=O)N1CCN(c2cccc(Cl)c2)CC1)C(c1ccccc1)c1ccccc1 -1.31%, CCOCCCn1c(=N)c(C(=O)NC2CCCCC2)cc2c(=O)n3ccccc3nc21 -20.6%, COC(=O)c1c(NC(=O)c2cc(=O)c3c(C)cc(C)cc3o2)sc2c1CCCC2 -5.46%, Cc1cccc(NC(=O)CN(c2ccc(C(C)C)cc2)S(=O)(=O)c2c(C)nn(C)c2C)c1C -10.2%, CCOC(=O)C1CCN(S(=O)(=O)c2cc(-c3onc(C)c3C)ccc2C)CC1 2.97%, CC(=O)N1CCCc2cc(S(=O)(=O)N3CCC(C(=O)N(Cc4ccccc4)C(C)C)CC3)ccc21 -6.61%, COCCn1c(C)cc(O)c(C(c2ccccc2)N2CCC(C)CC2)c1=O (stereo not given) 9.46%, CCc1ccccc1Nc1cc(C(=O)NCc2ccc(C)cc2)c2ccccc2n1 -0.0204%, COc1ccc(N2C(=O)CSC23C(=O)N(C)c2ccccc23)cc1Cl (stereo not given) -0.54%, O=C(c1c2c(nc3ccccc13)C(=O)N(C1CCCCC1)C2)N1CCN(c2ccc(F)cc2)CC1 -4.79%, CCOC(=O)N1CCN(C(=O)c2ccc3c(c2)N(Cc2ccccc2F)C(=O)c2ccccc2S3=O)CC1 (stereo not given) 0.14%, CCOC(=O)c1c(S(=O)(=O)N2CCCC(C(=O)Nc3ccc(OCC)cc3)C2)c(C)n(C)c1C (stereo not given) -6.33%, COc1ccc(C)cc1Nc1nc2c(S(=O)(=O)c3cccc(Cl)c3)nnn2c2ccsc12 -1.5%, Cc1ccc(S(=O)(=O)c2cn(Cc3cccc(F)c3)c3cc(N4CCCC4)c(F)cc3c2=O)cc1 -3.55%, Cc1ccc(-c2cc(NC(=O)c3ccccc3Cl)on2)cc1 5.71%, CCCOc1ccccc1-c1nc(SCC(=O)c2ccccc2)n[nH]1 -5.44%, CCOc1cc(CNS(=O)(=O)c2ccc3c(c2)CC(=O)N3C)cc(OCC)c1OCC 1.8%
